About 450 (0.94%) of roughly 48,000 compounds were called active. Inconclusive results, whose numbers are uncertain, are shown with a selection of clear calls. Calls follow the shape of the dose curve; as a rule, active = well fitted inhibition curve with a large enough effect; inconclusive = small, poorly fitted or top-dose-only effect; inactive = no such curve, though single readings can be large or run the other way. A potency beside an inconclusive call is a rough fit, not a confirmed value.
Experiment: Primary qHTS for Identification of Small Molecule Inhibitors of Huntingtin Promoter Activity; also: nearly all actives have a fitted effect of over 50% in size
Settings: HEK293 HTT promoter firefly luciferase reporter (activity 0% = vehicle and -100% = no light), 24 h; activity change, negative = inhibition: at 57.5 µM (top of the series)
Procedure, shortened: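 HEK293 Fluc reporter, 2,500 cells/well, 24 h pre-culture; cpds up to 57.5 uM final, 24 h 37 degrees C; Dual-Glo, 10 min RT; normalized vehicle = 0%, zero RLU = -100%.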
In the case of `O=C(Nc1ccccc1)c1ccc(Br)c(S(=O)(=O)N2CCCCC2)c1`, the Potency is reported as inconclusive: 15.8 µM [inhibitor, partial curve, poor fit]. With `COc1ccc(NC(=O)COc2ccc(S(=O)(=O)NC3CCCCC3)cc2)cc1OC` the Potency was inconclusive: 28.2 µM [inhibitor, single point]. In the case of `COc1ccc(Br)cc1C1Sc2ccccc2NC2=C1C(=O)c1ccccc12` (stereo unspecified), the Potency is reported as inconclusive: 14.1 µM [inhibitor, partial curve, poor fit]. For `CCOCCCn1c(SCC(=O)Nc2ccc(C)cc2)nc2ccccc2c1=O`, the Potency was inconclusive: 35.5 µM [inhibitor, single point]. In the case of `Cc1cc(C)c(NC(=O)C2CCN(c3nnc(C)c4c(C)n(-c5ccccc5)nc34)CC2)c(C)c1`, the Potency is reported as inconclusive: 25.1 µM [inhibitor, single point]. For `Cc1cc(C)cc(NS(=O)(=O)c2ccc3c(c2)CCCN3C(=O)C2CCC2)c1`, the Potency was inconclusive: 35.5 µM [inhibitor, partial curve, poor fit]. For `COc1ccc(CNC(=O)CN(c2cc(C)cc(C)c2)S(=O)(=O)c2c(C)[nH]c(=O)[nH]c2=O)cc1`, the “activity change, negative = inhibition” value was inactive: -5.13%. For `Cn1c(SCc2ccc(F)cc2)nc2ccc(C(=O)NCc3ccccc3)cc21`, the Potency was inconclusive: 35.5 µM [inhibitor, partial curve, poor fit]. In the case of `Cc1ccc(OCC(=O)Nc2ccc(S(=O)(=O)N(Cc3ccccc3)c3ccccc3)cc2)cc1`, the Potency is reported as inconclusive: 17.8 µM [inhibitor, partial curve, poor fit]. With `O=C(C1CCN(c2nc3ccccc3[nH]2)CC1)N1CCN(c2cccc(Cl)c2)CC1` the Potency was inconclusive: 15.8 µM [inhibitor, partial curve, poor fit]. For `CCc1ccc2occ(CC(=O)Nc3sc4c(c3C(=O)OC)CCC4)c2c1`, the Potency was inconclusive: 20 µM [inhibitor, partial curve, poor fit]. For `CC(C)c1ccc(NC(=O)C2CCCN(S(=O)(=O)c3ccc4[nH]c(=O)ccc4c3)C2)cc1` (stereo unspecified), the Potency was inconclusive: 39.8 µM [inhibitor, single point]. With `CCOC(=O)c1ccc(NC(=O)CC2C(=O)N(c3ccccc3)C(=O)N2C2CCCCC2)cc1` (stereo unspecified) the Potency was inconclusive: 28.2 µM [inhibitor, partial curve, poor fit]. With `CCN(c1ccc(C)cc1C)S(=O)(=O)c1nnc(NC(=O)c2ccccc2OC)s1` the Potency was inconclusive: 31.6 µM [inhibitor, single point]. With `O=C(CSc1oc(-c2ccco2)nc1S(=O)(=O)c1ccccc1)c1ccc(Cl)cc1` the Potency was inconclusive: 31.6 µM [inhibitor, partial curve, poor fit]. For `CCOC(=O)c1ccc(NC(=O)c2c(NCc3cc(OC)c(OC)cc3OC)sc3c2CCCC3)cc1`, the Potency was inconclusive: 39.8 µM [inhibitor, single point]. For `COc1ccc(-n2cc(-c3ccccc3)c3c(NCCc4ccc(OC)c(OC)c4)ncnc32)cc1`, the Potency was inconclusive: 28.2 µM [inhibitor, single point]. In the case of `Cn1c(=O)oc2cc(S(=O)(=O)N3CCCC(C(=O)N4CCN(c5cccc(Cl)c5)CC4)C3)ccc21` (stereo unspecified), the Potency is reported as inconclusive: 3.98 µM [inhibitor, partial curve]. With `O=C(NCCCCc1ccccc1)c1nn(-c2ccccc2)nc1CO` the Potency was inconclusive: 25.1 µM [inhibitor, single point]. With `CC1=C(C(=O)OCC2CCCCC2)C(c2cccc(F)c2F)CC(=O)N1` (stereo unspecified) the Potency was inconclusive: 10 µM [inhibitor, partial curve]. With `O=C(CC1(O)C(=O)N(Cc2ccccc2)c2ccc(Br)cc21)c1ccccc1` (stereo unspecified) the Potency was inconclusive: 31.6 µM [inhibitor, single point]. In the case of `Cc1ccc(-n2c(-c3ccco3)nc3c(cnn3-c3ccc(C)cc3)c2=O)cc1`, the “activity change, negative = inhibition” value is reported as inactive: -19.3%. For `CCCCN(C)S(=O)(=O)c1cc(-c2cc(C)no2)ccc1C`, the Potency was inconclusive: 39.8 µM [inhibitor, partial curve, poor fit]. For `COc1ccc(-c2cccc(NS(=O)(=O)c3cc(C)ccc3OC)c2)nn1`, the Potency was inconclusive: 12.6 µM [inhibitor, partial curve, poor fit]. With `CCc1cccc(C)c1NS(=O)(=O)c1ccc(-c2cc(C)no2)s1` the Potency was inconclusive: 1.12 µM [inhibitor, full curve]. For `Cc1ccccc1Nc1c(-c2ccc(N3CCOCC3)cc2)nc2ccc(Cl)cn12`, the “activity change, negative = inhibition” value was inactive: 3.99%. For `CCOC(=O)c1cc(-c2ccccc2)n(CCC(=O)NCCc2ccc(OC)c(OC)c2)c1C`, the Potency was inconclusive: 22.4 µM [inhibitor, single point]. In the case of `Cc1c(F)cc2c(=O)c(C(=O)O)cn3c2c1CCC3C` (stereo unspecified), the “activity change, negative = inhibition” value is reported as inactive: -0.318%. For `O=C(Nc1ccc2nc(SCC(=O)N3CCOCC3)sc2c1)c1ccccc1Cl`, the Potency was inconclusive: 25.1 µM [inhibitor, single point]. For `Cc1ccc(NCc2cccn2-c2nnc(N3CCC(C(=O)NCc4ccc(F)cc4)CC3)s2)cc1`, the Potency was inconclusive: 25.1 µM [inhibitor, partial curve]. With `CSc1ccc(CNC(=O)Cn2ccc3cc(S(=O)(=O)N4CCCC4)ccc32)cc1` the Potency was inconclusive: 22.4 µM [inhibitor, single point]. For `COc1cc(Cl)c(NS(=O)(=O)c2ccc(-c3coc(C)n3)cc2)c(OC)c1`, the Potency was inconclusive: 14.1 µM [inhibitor, partial curve, poor fit]. With `CCN(c1ncnc2c1cnn2-c1cccc(Cl)c1)C1CCCCC1` the Potency was inconclusive: 14.1 µM [inhibitor, single point]. In the case of `O=C(Nc1ccc2nc(SCC(=O)N3CCOCC3)sc2c1)c1ccc(Cl)cc1`, the Potency is reported as inconclusive: 39.8 µM [inhibitor, single point]. For `Cc1cccc(N2CCN(C(=O)c3nn(C)c4c3CS(=O)(=O)c3ccccc3-4)CC2C)c1` (stereo unspecified), the Potency was inconclusive: 35.5 µM [inhibitor, single point]. With `COc1cccc(N2CCN(c3ncnc4onc(-c5ccc(Cl)cc5)c34)CC2)c1` the Potency was inconclusive: 35.5 µM [inhibitor, single point].

— PubChem BioAssay AID1508623 (National Center for Advancing Translational Sciences (NCATS), 2021)
Potency is read from the fitted curve at half-maximal effect; tags tell the direction and shape of the fitted curve.
